From the supplement of paper PMC4967469
Lines with a small IC50 respond at low doses; a fit beyond the top or the lowest dose is shown as a bound at that dose. AUC, from the same fit, is the share of area under the viability curve across the 256-fold dose range; it is 1 without any effect and falls as sensitivity rises. The top dose, if marked as inferred, comes from the curve model; the source does not state it.

How the values were obtained:
Experiment in all cases: Viability of human cancer cell lines after 72 h of drug (GDSC screen)
Tipifarnib = compound: Cn1cncc1[C@@](N)(c1ccc(Cl)cc1)c1ccc2c(c1)c(-c1cccc(Cl)c1)cc(=O)n2C [Tipifarnib]; details: top dose 16 µM; top dose inferred
Procedure: (§1)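 Human cancer cell lines in 384-well plates, medium with 10% serum, drug for 72 h over a 256-fold dose range (nine 2-fold or five 4-fold steps up to the top dose). Adherent lines were fixed and stained with the nucleic acid dye Syto60, suspension lines read with resazurin; signal relative to control wells, capped at 0 and 100%. One two-parameter sigmoid per drug and line, fitted in a mixed model over all curves with the slope shared within a line.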

NG-25 = compound: CCN1CCN(Cc2ccc(NC(=O)c3ccc(C)c(Oc4ccnc5[nH]ccc45)c3)cc2C(F)(F)F)CC1 [NG-25]; details: top dose 10.24 µM; top dose inferred
Procedure: as §1

GSK-1904529A = compound: CCc1cc(Nc2nccc(-c3c(-c4ccc(OC)c(C(=O)Nc5c(F)cccc5F)c4)nc4ccccn34)n2)c(OC)cc1N1CCC(N2CCN(S(C)(=O)=O)CC2)CC1 [GSK-1904529A]; details: top dose 1.024 µM; top dose inferred
Procedure: as §1

PFI-1 = compound: COc1ccccc1S(=O)(=O)Nc1ccc2c(c1)CN(C)C(=O)N2 [PFI-1]; details: top dose 10 µM; top dose inferred
Procedure: as §1

Cell Line	AUC (Tipifarnib)	IC50 (Tipifarnib)	AUC (NG-25)	IC50 (NG-25)	AUC (GSK-1904529A)	IC50 (GSK-1904529A)	AUC (PFI-1)	IC50 (PFI-1)
M14 (melanoma, adherent)	0.837	11.5 µM	0.75	3.5 µM	0.814	0.597 µM	0.876	> 10 µM
FU-OV-1 (ovary, adherent)	0.737	5.99 µM	0.922	> 10.2 µM	0.962	> 1.02 µM	0.792	6.19 µM
NCI-H1688 (small cell lung carcinoma, adherent)	0.851	14.3 µM	0.777	4.55 µM	0.986	> 1.02 µM	0.975	> 10 µM
RKN (ovary, adherent)	0.752	5.6 µM	0.909	> 10.2 µM	0.953	> 1.02 µM	0.915	> 10 µM
SK-CO-1 (large intestine, adherent)	0.807	7.61 µM	0.974	> 10.2 µM	0.988	> 1.02 µM	0.96	> 10 µM
KYSE-220 (oesophagus, adherent)	0.752	5.56 µM	0.953	> 10.2 µM	0.963	> 1.02 µM	0.982	> 10 µM
COR-L105 (lung adenocarcinoma, adherent)	0.718	4.82 µM	0.746	3.87 µM	0.967	> 1.02 µM	0.817	7.24 µM
KP-4 (pancreas, adherent)	0.825	9.09 µM	0.986	> 10.2 µM	0.979	> 1.02 µM	0.942	> 10 µM
LN-229 (glioma, adherent)	0.861	13.4 µM	0.986	> 10.2 µM	0.985	> 1.02 µM	0.896	> 10 µM
HCC1806 (breast, adherent)	0.839	9.64 µM	0.941	> 10.2 µM	0.965	> 1.02 µM	0.904	> 10 µM
ABC-1 (lung adenocarcinoma, adherent)	0.579	1.72 µM	0.945	> 10.2 µM	0.969	> 1.02 µM	0.895	> 10 µM
LN-405 (glioma, adherent)	0.913	> 16 µM	0.977	> 10.2 µM	0.979	> 1.02 µM	0.932	> 10 µM
MKN45 (stomach, adherent)	0.648	2.87 µM	0.922	> 10.2 µM	0.974	> 1.02 µM	0.916	> 10 µM
OSC-20 (head and neck, adherent)	0.542	1.33 µM	0.942	> 10.2 µM	0.977	> 1.02 µM	0.877	> 10 µM
NCI-H727 (lung carcinoid, adherent)	0.504	1.03 µM	0.977	> 10.2 µM	0.922	> 1.02 µM	0.88	> 10 µM
KOSC-2 (head and neck, adherent)	0.84	11.7 µM	0.88	> 10.2 µM	0.969	> 1.02 µM	0.856	8.66 µM
GP5d (large intestine, adherent)	0.548	1.33 µM	0.849	6.47 µM	0.987	> 1.02 µM	0.928	> 10 µM
Hep 3B2_1-7 (liver, adherent)	0.4	0.532 µM	0.815	5.63 µM	0.981	> 1.02 µM	0.866	8.88 µM
NCI-H2009 (lung adenocarcinoma, adherent)	0.35	0.374 µM	0.968	> 10.2 µM	0.936	> 1.02 µM	0.925	> 10 µM
KYSE-150 (oesophagus, adherent)	0.686	3.23 µM	0.965	> 10.2 µM	0.987	> 1.02 µM	0.974	> 10 µM
LU-99A (large cell lung carcinoma, adherent)	0.674	3.04 µM	0.875	9.89 µM	0.984	> 1.02 µM	0.919	> 10 µM
TT (thyroid, adherent)	0.893	> 16 µM	0.972	> 10.2 µM	0.948	> 1.02 µM	0.932	> 10 µM
SNU-398 (liver, adherent)	0.122	< 0.0625 µM	0.869	10 µM	0.903	> 1.02 µM	0.912	> 10 µM
OVMIU (ovary, adherent)	0.688	3.87 µM	0.838	9.53 µM	0.974	> 1.02 µM	0.809	6.84 µM
RVH-421 (melanoma, adherent)	0.786	9.83 µM	0.819	8.86 µM	0.971	> 1.02 µM	0.876	> 10 µM

Cell Line	AUC (Tipifarnib)	IC50 (Tipifarnib)	AUC (NG-25)	IC50 (NG-25)	AUC (GSK-1904529A)	IC50 (GSK-1904529A)	AUC (PFI-1)	IC50 (PFI-1)
H2461 (mesothelioma, adherent)	0.764	7.23 µM	0.98	> 10.2 µM	0.971	> 1.02 µM	0.867	> 10 µM
639-V (bladder, adherent)	0.493	0.958 µM	0.97	> 10.2 µM	0.98	> 1.02 µM	0.906	> 10 µM
MES-SA (uterus, adherent)	0.693	3.15 µM	0.992	> 10.2 µM	0.984	> 1.02 µM	0.856	6.22 µM
OVCAR-3 (ovary, adherent)	0.788	7.82 µM	0.986	> 10.2 µM	0.975	> 1.02 µM	0.887	> 10 µM
SF295 (glioma, adherent)	0.481	0.882 µM	0.934	> 10.2 µM	0.977	> 1.02 µM	0.806	5.56 µM
OE21 (oesophagus, adherent)	0.629	2.59 µM	0.949	> 10.2 µM	0.966	> 1.02 µM	0.717	3.28 µM
VMRC-MELG (melanoma, adherent)	0.967	> 16 µM	0.913	> 10.2 µM	0.985	> 1.02 µM	0.887	> 10 µM
FU97 (stomach, adherent)	0.673	3.09 µM	0.931	> 10.2 µM	0.951	> 1.02 µM	0.746	3.26 µM
Ca-Ski (cervix, adherent)	0.749	5.73 µM	0.762	4.08 µM	0.982	> 1.02 µM	0.733	3.17 µM
LC-1-sq (lung squamous cell carcinoma, adherent)	0.778	7.65 µM	0.959	> 10.2 µM	0.983	> 1.02 µM	0.881	> 10 µM
HARA (lung squamous cell carcinoma, adherent)	0.8	9.26 µM	0.881	> 10.2 µM	0.972	> 1.02 µM	0.821	7.06 µM
PANC-08-13 (pancreas, adherent)	0.922	> 16 µM	0.849	> 10.2 µM	0.97	> 1.02 µM	0.884	> 10 µM
WM793B (melanoma, adherent)	0.504	1.03 µM	0.827	7.18 µM	0.976	> 1.02 µM	0.901	> 10 µM
CAL-51 (breast, adherent)	0.625	2.1 µM	0.941	> 10.2 µM	0.99	> 1.02 µM	0.95	> 10 µM
BT-20 (breast, adherent)	0.763	7.09 µM	0.891	> 10.2 µM	0.962	> 1.02 µM	0.942	> 10 µM
SU-DHL-5 (B-cell lymphoma, suspension)	0.452	0.762 µM	0.502	0.648 µM	0.994	> 1.02 µM	0.785	3.2 µM
JHU-011 (head and neck, adherent)	0.478	0.873 µM	0.899	> 10.2 µM	0.983	> 1.02 µM	0.893	> 10 µM
HTC-C3 (thyroid, adherent)	0.699	3.9 µM	0.838	8.17 µM	0.977	> 1.02 µM	0.805	5.78 µM
BHT-101 (thyroid, adherent)	0.664	2.9 µM	0.823	6.3 µM	0.965	> 1.02 µM	0.717	2.63 µM
HO-1-N-1 (head and neck, adherent)	0.783	6.15 µM	0.973	> 10.2 µM	0.98	> 1.02 µM	0.824	5.33 µM
WM278 (melanoma, adherent)	0.443	0.683 µM	0.771	4.43 µM	0.979	> 1.02 µM	0.911	> 10 µM
SNU-387 (liver, adherent)	0.78	7.54 µM	0.807	6.14 µM	0.973	> 1.02 µM	0.872	> 10 µM
EGI-1 (biliary tract, adherent)	0.67	3.45 µM	0.937	> 10.2 µM	0.967	> 1.02 µM	0.88	> 10 µM
IGR-1 (melanoma, adherent)	0.567	1.49 µM	0.738	2.75 µM	0.982	> 1.02 µM	0.828	5.17 µM
